# According to article PMC4336329 (PLoS ONE, 2015):
# About 14,000 (4.5%) of roughly 310,000 compounds showed an effect of 50% or more. The effect is printed as a negative number. This is one part of the list.
# Molecular target: human ether-à-go-go-related gene (hERG) potassium channel (human, UniProt Q12809)
# Assay: primary screen, population patch clamp on CHO cells stably expressing hERG
# 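Also: peak tail current of the secondary pulse compared with the same well before compound.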
# Sequence of human ether-à-go-go-related gene (hERG) potassium channel (Q12809 whole entry, looked up): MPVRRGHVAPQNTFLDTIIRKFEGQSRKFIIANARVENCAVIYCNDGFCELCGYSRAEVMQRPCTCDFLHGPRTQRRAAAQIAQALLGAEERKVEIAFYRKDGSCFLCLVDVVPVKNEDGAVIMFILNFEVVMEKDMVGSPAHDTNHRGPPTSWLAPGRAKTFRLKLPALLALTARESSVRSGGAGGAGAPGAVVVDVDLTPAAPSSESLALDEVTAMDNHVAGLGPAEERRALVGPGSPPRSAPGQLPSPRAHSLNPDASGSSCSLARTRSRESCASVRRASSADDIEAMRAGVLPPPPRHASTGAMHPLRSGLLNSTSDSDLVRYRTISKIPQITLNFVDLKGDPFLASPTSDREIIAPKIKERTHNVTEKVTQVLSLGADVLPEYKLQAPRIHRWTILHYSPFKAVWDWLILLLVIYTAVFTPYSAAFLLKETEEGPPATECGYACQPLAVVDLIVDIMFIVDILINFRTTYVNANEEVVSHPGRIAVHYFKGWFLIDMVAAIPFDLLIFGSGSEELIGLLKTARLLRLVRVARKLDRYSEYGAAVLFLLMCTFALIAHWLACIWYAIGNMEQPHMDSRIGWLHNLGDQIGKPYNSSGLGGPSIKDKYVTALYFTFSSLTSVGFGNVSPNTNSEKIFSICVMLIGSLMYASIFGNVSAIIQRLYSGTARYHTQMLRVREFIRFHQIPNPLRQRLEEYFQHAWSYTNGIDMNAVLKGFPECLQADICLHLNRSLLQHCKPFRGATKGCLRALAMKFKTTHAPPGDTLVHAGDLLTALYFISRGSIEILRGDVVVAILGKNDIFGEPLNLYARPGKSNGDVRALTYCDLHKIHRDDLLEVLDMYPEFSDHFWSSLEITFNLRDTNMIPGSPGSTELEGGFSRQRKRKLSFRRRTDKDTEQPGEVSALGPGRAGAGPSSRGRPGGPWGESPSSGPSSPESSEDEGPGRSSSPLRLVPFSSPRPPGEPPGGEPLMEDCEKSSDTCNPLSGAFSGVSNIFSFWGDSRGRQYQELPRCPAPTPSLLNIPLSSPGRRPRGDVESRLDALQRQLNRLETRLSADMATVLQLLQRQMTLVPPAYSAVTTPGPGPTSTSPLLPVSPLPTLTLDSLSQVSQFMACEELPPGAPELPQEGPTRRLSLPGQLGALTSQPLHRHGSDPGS
row,SMILES,"hERG current change (%, negative = inhibition) at 10uM [%]"
1,CS(=O)(=O)Oc1ccc(Br)cc1/C=C1/N=C(c2ccco2)OC1=O,8.3
2,CCOc1ccccc1CN1CCC(n2nccc2NC(=O)CCc2ccccc2)CC1,-38.6
3,CC(C)c1nnc(NC(=O)c2nc(S(=O)(=O)Cc3ccc(F)cc3)ncc2Cl)s1,-1.12
4,O=C(NC1CCCc2ccccc21)C1CCN(S(=O)(=O)c2ccccc2)CC1 (centres unmarked),-5.8
5,O=C(O)CSc1nc2ccc(Cl)cc2[nH]1,15.4
6,Cn1c(Cl)cnc1C1CC(=O)c2cc(Cl)ccc2O1 (centres unmarked),-18.3
7,O=c1[nH]c(C2CCN(S(=O)(=O)/C=C/c3ccccc3)CC2)nc2c1nnn2Cc1ccccc1,-15.6
8,CCC1(CC)C(=O)C=CNC1=O,-2.7
9,CC1=NN(c2ccccc2)C(=O)/C1=C/c1c(C)[nH]n(-c2ccc(C)cc2)c1=O,-20.9
10,CC(Sc1nnc(CC(C)c2ccccc2)n1N)C(N)=O (centres unmarked),7.61
11,COC(=O)c1ccc(C(=S)N2CCCCC2)cc1,8.89
12,O=C(CSc1nnc(-c2ccc(Cl)cc2)n1Cc1ccco1)Nc1ccc2c(c1)OCCO2,-3.51
13,CCOC(=O)C1CCN(C(=O)Nc2ccc3nc(-c4ccco4)c(-c4ccco4)nc3c2)CC1,-21.3
14,COC(C[C@H]1O[C@@H]1C(=O)COCc1ccccc1)OC,4.27
15,O=C(NCc1cccc(Cl)c1)c1ccc(CS(=O)Cc2ccccc2Cl)o1 (centres unmarked),-3.52
16,Cn1c(=O)[nH]c(=O)c2c1nc(Br)n2CCSc1nnnn1-c1ccccc1,-7.3
17,CCOC(=O)C1CCN(C(=O)c2cc3c(ccc4ccccc43)o2)CC1,-12.8
18,O=C(NC1CCN(Cc2ccccc2)CC1)C1COc2ccccc2O1 (centres unmarked),-57.5
19,CC(C)(C)NC(=O)NC(=O)COc1ccc(Br)cc1Br,-22.1
20,CCOc1ccc(NC(=O)[C@@H]2CCCN2C(=O)c2cccs2)cc1S(=O)(=O)N1CCCCC1,10.5
21,C[N+](C)(CC#Cc1ccccc1)CC(=O)c1ccc(Cl)cc1,-28.3
22,O=C(Nc1ccnn1C1CCN(Cc2ccccc2)CC1)C1CCOC1 (centres unmarked),18.8

row,SMILES,"hERG current change (%, negative = inhibition) at 10uM [%]"
1,COc1ccc(NC(=O)c2ccc3c(c2)OCO3)cc1,11.7
2,COc1ccc(C(=O)Nc2sc(C)c(-c3ccccc3)c2C#N)cc1OC,4.11
3,Cc1cc(C)nc(/N=C(\N)N(Cc2ccccc2)Cc2ccccc2)n1,-70.6
4,Cc1cc(NC(=O)CSc2ncc(CO)n2Cc2ccc(F)cc2)no1,6.01
5,O=C(NCCCN=C1NS(=O)(=O)c2ccccc21)c1ccncc1,-11.8
6,Brc1ccc(-c2ccc(/C=N/Nc3nc4ccccc4[nH]3)o2)cc1,8.63
7,CCN1CCN(C(=O)c2ccc3c(Cl)c4c(nc3c2)CCCC4)CC1,6.65
8,COC(=O)CC(NC(=O)Nc1ccccc1F)c1ccc2c(c1)OCO2 (centres unmarked),18.2
9,O=C(NCCCN1CCOCC1)C1CCN(S(=O)(=O)c2ccccc2)CC1,10.6
10,O=C(NCc1ccccc1)C(c1cccnc1)N(C(=O)c1ccccn1)c1cccc(F)c1 (centres unmarked),9.24
11,O=C(NC(=S)Nc1cccc(NC(=S)NC(=O)c2ccco2)n1)c1ccco1,25.2
12,N#Cc1ccccc1NC(=O)CSC1=Nc2ccccc2C2CC=NN12 (centres unmarked),1.95
13,CCCN1Cc2cccc(C(=O)Nc3ccc(-c4nc5ccccc5[nH]4)cc3)c2C1=O,2.39
14,COc1cc(C(=O)Nc2cccc3c2CCCC3)cc(OC)c1OC,5.39
15,Cc1ccc2[nH]c(C(=O)NN=C3CCCCC3)c(-c3ccccc3)c2c1,-11.2
16,CC(C(=O)Nc1ccccc1)N(C)CCOc1ccccc1 (centres unmarked),-9.45
17,Cc1ccc(-n2nnnc2-c2cnn(-c3ccc(F)cc3)c2C(F)(F)F)cc1,11.9
18,Nc1nc(CN2CCN(Cc3ccc4c(c3)OCO4)CC2)nc(Nc2ccccc2)n1,-75.6
19,CCOc1ccc(C(CC(=O)O)NC(=O)C(Sc2ccccc2)c2ccccc2)cc1 (centres unmarked),23
20,Cn1c(=O)c2sccc2n2c(CCCC(=O)NCCc3ccc(S(N)(=O)=O)cc3)nnc12,15.6
21,CCCN1C2=NCCCN2c2ccccc21.Cl,-9.58
22,CC1(C)CC(=O)C(N=Nc2cc(C(F)(F)F)ccc2Cl)=C(O)C1,15.6

row,SMILES,"hERG current change (%, negative = inhibition) at 10uM [%]"
1,Cc1cccc(NC(=O)N2CCC(NC(=O)C3CCCCC3)CC2)c1,7.22
2,Cc1cccc(OCC(=O)NNS(=O)(=O)c2ccccc2F)c1,14.5
3,CCOC(=O)c1cnc(-c2ccccc2)nc1N,-2.78
4,CC1CCCN(S(=O)(=O)c2ccc(C(=O)Nc3nnc(C4CC4)o3)cc2)C1 (centres unmarked),1.22
5,Nc1nc(NCc2ccco2)nc(Nc2cccc(F)c2)c1[N+](=O)[O-],22.3
6,Cc1cc(C)c(S(=O)(=O)N(C)CC(=O)NCc2cccnc2)c(C)c1,5.05
7,CCCC(=O)c1cc2c(cc1NC(=O)CC)OCCO2,-14
8,Cc1ccccc1OC(C)C(=O)NCc1cccnc1 (centres unmarked),2.43
9,COc1ccccc1NS(=O)(=O)c1cc(NC(=O)c2ccc(=O)[nH]c2)ccc1N1CCOCC1,-2.74
10,O=C(Nc1ccc(CN2CCOCC2)cc1)c1cc2ccccn2n1,-21.3
11,Cc1cc(CNC(=O)C2CCC(=O)N(Cc3cccc(C(F)(F)F)c3)C2)no1 (centres unmarked),2.38
12,COc1ccc(C(=O)N/N=C/c2ccc(OC)c(CN3CCN(c4ccc(F)cc4)CC3)c2)cc1,-74.2
13,O=C(O)/C(=C\c1cn(-c2ccccc2)nc1-c1cccnc1)NC(=O)c1ccccc1,7.21
14,Cc1c(NC(=O)Cc2noc3ccccc23)cccc1[N+](=O)[O-],29.4
15,CCSC1=N/C(=C\c2ccc(OC)cc2)C(=O)N1,-0.965
16,CCCN1CCN(C(=O)C(C)n2nc(C)c3sc4ccccc4c3c2=O)CC1 (centres unmarked),-13.3
17,CCCCn1nnnc1SCC(=O)NNC(=O)c1ccco1,22.6
18,CC(C)CC(=O)c1c[nH]c(C(=O)NCCc2ccccn2)c1,-0.743
19,COc1cccc(NC(=O)C2CCCN2C(=O)Nc2cccc(F)c2)c1 (centres unmarked),-4.71
20,O=C(Cc1cccs1)N1CCN(c2cccc(Cl)c2)CC1,-12
21,COCCNC(=O)c1ccccc1NC(=O)c1ccccc1N(C)S(=O)(=O)c1ccc(C)cc1,-19.9
22,O=C(c1ccc(CS(=O)Cc2ccccc2Cl)o1)N1CCN(C2CCCCC2)CC1 (centres unmarked),1.8

row,SMILES,"hERG current change (%, negative = inhibition) at 10uM [%]"
1,COCCNc1ccc(S(=O)(=O)N2CCCC2)cc1[N+](=O)[O-],-12.3
2,Cc1ccc(S(=O)(=O)Nc2nc(C)c(C(=O)N/N=C/c3ccccc3)s2)cc1,16.9
3,O=S(=O)(c1ccc(SCc2ccccc2)nc1)N1CCCCCC1,-2.37
4,COc1ccc(OC)c2sc(N(CCN(C)C)C(=O)c3cc(Cl)sc3Cl)nc12.Cl,-28.9
5,CCOC(=O)CCCn1nc(C)n2c(cc3sccc32)c1=O,-21.6
6,COc1ccc(NC(=O)c2cc([N+](=O)[O-])ccc2NC(=O)CNCc2ccccn2)c(OC)c1,7.29
7,Cc1cccc(NC(=O)NCC2CCN(c3ccc(S(=O)(=O)N4CCOCC4)cc3)CC2)c1,-8.61
8,COC(=O)CCC(=O)N1CCOCCOCCOCC1,6.29
9,O=C(Nc1nc2c(s1)CCCC2)C1COc2ccccc2O1 (centres unmarked),-12.5
10,Cc1ccc(C)c(SCC(=O)NNC(=O)c2csc(N3CCOCC3)n2)c1,-55.1
11,CSc1cccc(NC(=S)N2CCC(N(C)C3CCCCC3C)CC2)c1 (centres unmarked),-58.2
12,COc1ccc(C(=O)Nc2ccc(S(=O)(=O)N3CCN(C)CC3)cc2)cc1,8.1
13,CC(Cc1ccccc1)NC(=O)/C=C/c1ccc([N+](=O)[O-])cc1 (centres unmarked),-51.7
14,CC1(C)NC(=O)N(CCOc2ccc3c(c2)CCC3)C1=O,-4.24
15,O=C(NCc1cccs1)C1CCCN(S(=O)(=O)c2cnc[nH]2)C1 (centres unmarked),3.55
16,CCOc1ccc(S(=O)(=O)Nc2cccc(C(=O)N3CCN(c4cccc(OC)c4)CC3)c2)cc1,14.4
17,COc1ccc(-c2nc3c(c4nnc(SC(C)C(=O)Nc5ccccc5)n24)COC(C)(C)C3)cc1 (centres unmarked),-5.88
18,COc1ccc(NC(=O)CN(C)C(=O)c2cnc(Cl)c(Cl)c2)cc1,2.39
19,CC1=NN(/C(=N\c2nnc(C)s2)Nc2ccccc2)[C@H](c2ccc(C)cc2)S1,-13.5
20,COc1cccc(CN(C)C(=O)c2ccc(OCC(=O)Nc3cccc(C(F)(F)F)c3)c(OC)c2)c1,-26.2
